# Test results: the supplement of paper PMC6089552
# Out of some 3,200 compounds screened, about 300 (9.4%) showed activity. The list shows a part of the results, in another mix than the full data.
# System: A673/TR/shEF
# Test: cell viability (LOESS-normalised, relative to median of negative controls) (log2 ratio); higher = more viable cells (less compound effect), active = hit call of the paper (over 3 MAD below the median)
# Settings: treatment time: 72 h
# How it was run: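 A673/TR/shEF Ewing sarcoma cells (1,500 per well, 384-well plates) were grown with or without doxycycline to induce EWS-FLI1 shRNA knockdown, starting 24 h before compounds. Library compounds at two or more concentrations, with DMSO controls, were added for three days. Cell viability was read by CellTiter-Glo luminescence on an Envision reader, then LOESS-corrected per plate, divided by the median of negative controls and log2-transformed. Hits were wells at least three median absolute deviations from the median of all screened wells.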
# [1] = 0.25 µM, library screen: screen1, EWS-FLI1 expression: high (no doxycycline)
# [2] = 0.25 µM, library screen: screen1, EWS-FLI1 expression: low (doxycycline-induced shRNA knockdown)
# [3] = 2.5 µM, library screen: screen1, EWS-FLI1 expression: high (no doxycycline)
# [4] = 2.5 µM, library screen: screen1, EWS-FLI1 expression: low (doxycycline-induced shRNA knockdown)
# [5] = 0.25 µM, library screen: screen2, EWS-FLI1 expression: high (no doxycycline)
# [6] = 0.25 µM, library screen: screen2, EWS-FLI1 expression: low (doxycycline-induced shRNA knockdown)
# [7] = 2.5 µM, library screen: screen2, EWS-FLI1 expression: high (no doxycycline)
# [8] = 2.5 µM, library screen: screen2, EWS-FLI1 expression: low (doxycycline-induced shRNA knockdown)
# [9] = 0.103 µM, library screen: screen3, EWS-FLI1 expression: high (no doxycycline)
# [10] = 0.103 µM, library screen: screen3, EWS-FLI1 expression: low (doxycycline-induced shRNA knockdown)
# [11] = 0.308 µM, library screen: screen3, EWS-FLI1 expression: high (no doxycycline)
# [12] = 0.308 µM, library screen: screen3, EWS-FLI1 expression: low (doxycycline-induced shRNA knockdown)
# [13] = 0.926 µM, library screen: screen3, EWS-FLI1 expression: high (no doxycycline)
# [14] = 0.926 µM, library screen: screen3, EWS-FLI1 expression: low (doxycycline-induced shRNA knockdown)
# [15] = 2.8 µM, library screen: screen3, EWS-FLI1 expression: high (no doxycycline)
# [16] = 2.8 µM, library screen: screen3, EWS-FLI1 expression: low (doxycycline-induced shRNA knockdown)
# [17] = 8.3 µM, library screen: screen3, EWS-FLI1 expression: high (no doxycycline)
# [18] = 8.3 µM, library screen: screen3, EWS-FLI1 expression: low (doxycycline-induced shRNA knockdown)
# [19] = 25 µM, library screen: screen3, EWS-FLI1 expression: high (no doxycycline)
# [20] = 25 µM, library screen: screen3, EWS-FLI1 expression: low (doxycycline-induced shRNA knockdown)
smiles,measurement,setting,value
COc1ccc2ccc(=O)oc2c1,cell viability (log2),[1],inactive: 0.112
same,cell viability (log2),[2],inactive: 0.0698
same,cell viability (log2),[3],inactive: 0.19
same,cell viability (log2),[4],inactive: -0.0312
OCC(O)C1NCC(O)C1O (stereo not given),cell viability (log2),[5],inactive: 0.0417
same,cell viability (log2),[6],inactive: 0.103
same,cell viability (log2),[7],inactive: 0.000766
same,cell viability (log2),[8],inactive: 0.0189
CC(=O)Oc1cc(C)c2c(c1C(OC(C)=O)OC(C)=O)Oc1c(c(C)c(OC(C)=O)c3c1C(OC(C)=O)OC3=O)OC2=O (stereo not given),cell viability (log2),[1],inactive: 0.0407
same,cell viability (log2),[2],inactive: 0.0968
same,cell viability (log2),[3],inactive: 0.0425
same,cell viability (log2),[4],inactive: 0.133
COc1cc([S+](C)[O-])ccc1-c1nc2ncccc2[nH]1 (stereo not given),cell viability (log2),[1],inactive: 0.101
same,cell viability (log2),[2],inactive: 0.00949
same,cell viability (log2),[3],inactive: 0.131
same,cell viability (log2),[4],inactive: 0.0599
O=[N+]([O-])c1cccc2c(Br)[nH]nc12,cell viability (log2),[5],inactive: 0.237
same,cell viability (log2),[6],inactive: 0.103
same,cell viability (log2),[7],inactive: 0.209
same,cell viability (log2),[8],inactive: 0.0734
CC(C)(O)[C@H]1CC[C@]2(C)[C@H]3CC[C@@H]4[C@@]5(C)CCCC(C)(C)[C@@H]5[C@@H](O)C[C@@]4(C)[C@]3(C)CC[C@@H]12,cell viability (log2),[1],inactive: 0.0136
same,cell viability (log2),[2],inactive: 0.0775
same,cell viability (log2),[3],inactive: 0.0306
same,cell viability (log2),[4],inactive: 0.112
O=C1NCN(c2ccccc2)C12CCN(CCCC(c1ccc(F)cc1)c1ccc(F)cc1)CC2,cell viability (log2),[5],inactive: 0.134
same,cell viability (log2),[6],inactive: 0.0215
same,cell viability (log2),[7],inactive: 0.036
same,cell viability (log2),[8],inactive: 0.0813
COc1cccc(OC)c1OCCNCC1COc2ccccc2O1 (stereo not given),cell viability (log2),[5],inactive: 0.205
same,cell viability (log2),[6],inactive: 0.0306
same,cell viability (log2),[7],inactive: 0.221
same,cell viability (log2),[8],inactive: 0.0591
CC(CN1c2ccccc2Sc2cccnc21)N(C)C (stereo not given),cell viability (log2),[1],inactive: 0.132
same,cell viability (log2),[2],inactive: 0.0453
same,cell viability (log2),[3],inactive: 0.0549
same,cell viability (log2),[4],inactive: 0.034
CC(=O)CCC(=O)O,cell viability (log2),[1],inactive: 0.109
same,cell viability (log2),[2],inactive: -0.0377
same,cell viability (log2),[3],inactive: 0.149
same,cell viability (log2),[4],inactive: 0.116
CC[C@H]1OC(=O)[C@H](C)[C@@H](O[C@H]2C[C@@](C)(OC)[C@@H](O)[C@H](C)O2)[C@H](C)[C@@H](O[C@@H]2O[C@H](C)C[C@H](N(C)C)[C@H]2O)[C@](C)(OC)C[C@@H](C)C(=O)[C@H](C)[C@@H](O)[C@]1(C)O,cell viability (log2),[9],inactive: 0.0902
same,cell viability (log2),[10],inactive: 0.108
same,cell viability (log2),[1],inactive: 0.0996
same,cell viability (log2),[2],inactive: 0.0329
same,cell viability (log2),[11],inactive: 0.116
same,cell viability (log2),[12],inactive: 0.0395
same,cell viability (log2),[13],inactive: 0.0584
same,cell viability (log2),[14],inactive: 0.101
same,cell viability (log2),[3],inactive: 0.141
same,cell viability (log2),[4],inactive: -0.0156
same,cell viability (log2),[15],inactive: 0.0826
same,cell viability (log2),[16],inactive: 0.0746
same,cell viability (log2),[17],inactive: 0.0519
same,cell viability (log2),[18],inactive: 0.1
same,cell viability (log2),[19],inactive: 0.0701
same,cell viability (log2),[20],inactive: 0.063
C[C@H]1COC2=C1C(=O)C(=O)c1c2ccc2c1CCCC2(C)C,cell viability (log2),[9],inactive: 0.0338
same,cell viability (log2),[10],inactive: 0.0754
same,cell viability (log2),[11],inactive: 0.0526
same,cell viability (log2),[12],inactive: 0.0683
same,cell viability (log2),[13],inactive: 0.0196
same,cell viability (log2),[14],inactive: 0.0264
same,cell viability (log2),[15],inactive: -0.0315
same,cell viability (log2),[16],inactive: -0.0274
same,cell viability (log2),[17],inactive: 0.0932
same,cell viability (log2),[18],inactive: -0.035
same,cell viability (log2),[19],active: -0.196
same,cell viability (log2),[20],active: -0.308
NC(=O)Cc1cccc(C(=O)c2ccccc2)c1N,cell viability (log2),[9],inactive: 0.11
same,cell viability (log2),[10],inactive: 0.0297
same,cell viability (log2),[11],inactive: 0.0847
same,cell viability (log2),[12],inactive: 0.0563
same,cell viability (log2),[13],inactive: 0.0483
same,cell viability (log2),[14],inactive: 0.064
same,cell viability (log2),[15],inactive: 0.0322
same,cell viability (log2),[16],inactive: 0.0631
same,cell viability (log2),[17],inactive: 0.0846
same,cell viability (log2),[18],inactive: 0.0598
same,cell viability (log2),[19],inactive: -0.0622
same,cell viability (log2),[20],inactive: -0.0429
